Measurements taken from ChEMBL document CHEMBL5724801, “EUbOPEN Chemogenomics Library - Multiplex” (2024).
Not every entry of the source has a single result; some have several. This list holds those alone. There may be further records. The records of an entry are repeated measurements (runs, samples, wells, individuals or studies).

How the values were obtained:
Assay type in all cases: toxicity, cell-based
[1] = tested on: U2OS; assay: Multiplex assay against U2OS; conditions: human
In short: (§1)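 On a CQ1 microscope at 37°C and 5% CO2, live cells were imaged after compound addition. They had been stained at seeding with Hoechst33342, BioTracker Green Microtubule Cytoskeleton Dye, MitoTracker Red and Annexin V Alexa Fluor 680. CellPathfinder machine-learning gating assigned cells to Hoechst high-intensity objects or normal cells, normal cells to healthy, pyknosed or fragmented nuclei, and pyknosed cells to mitotic or apoptotic. Tubulin, mitochondrial-mass and membrane-permeability phenotypes are per cents of healthy-nucleus cells.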

[2] = tested on: Fibroblast; assay: Multiplex assay against human fibroblast; in short: as §1
[3] = tested on: HEK-293T; assay: Multiplex assay against HEK293T; conditions: human; in short: as §1
[4] = 48 h, 1 µM, compound concentration 1 uM
[5] = 12 h, 1 µM, compound concentration 1 uM
[6] = 12 h, 10 µM, compound concentration 10 uM
[7] = 24 h, 10 µM, compound concentration 10 uM
[8] = 24 h, 1 µM, compound concentration 1 uM
[9] = 48 h, 10 µM, compound concentration 10 uM

COc1cccc2c1c(NS(=O)(=O)c1ccc(Cl)s1)nn2Cc1cccc(CNC(=O)C(C)(C)O)c1
Population Mitotic Cells (%) [1, 4]: 4% and 25%

Cc1c(CC(=O)O)c2cccnc2n1Cc1ccc(S(C)(=O)=O)cc1C(F)(F)F [FEVIPIPRANT]
Population Membrane Permeable-Phenotype (%) [2, 5]: 1% and 13% | Population Mitotic Cells (%) [1, 4]: 34% and 9%

COc1c(Nc2ccc(S(C)(=O)=O)nc2C)ncnc1OC1CCN(C(=O)OC(C)C)CC1 [ADP-597]
Population Hoechst High Intensity Objects (%) [3, 6]: 8% and 25%

CC(=O)Nc1cccc2c1c(Sc1ccc(Cl)cc1)c(C)n2CC(=O)O [AZD1981]
Population Membrane Permeable-Phenotype (%) [2, 5]: 2% and 14% | Population Membrane Permeable-Phenotype (%) [2, 7]: 2% and 14% | Total Cell Count [1, 5]: 253 and 82 | Population Mitotic Cells (%) [1, 8]: 8% and 50%

Cc1cc(NC(=O)c2cccc(NC(=O)/C=C/CN(C)C)c2)ccc1Nc1nccc(-c2cccnc2)n1
Population Pyknosed Nuclei (%) [1, 5]: 7.11% and 22.09% | Population Mitochondria Different-Phenotype (%) [1, 6]: 12.39% and 64.47% | Population Mitochondria Different-Phenotype (%) [1, 8]: 0.2% and 12.5% | Population Healthy Nuclei (%) [1, 7]: 35.74% and 10.53% | Total Cell Count [1, 4]: 976 and 307 | Population Membrane Permeable-Phenotype (%) [1, 9]: 9.09% and 42.11% | Population Mitochondria Different-Phenotype (%) [1, 9]: 22.73% and 5.26% | Population Tubulin-Different-Phenotype (%) [1, 9]: 50% and 15.79%

OCCCNc1cc(-c2ccnc(Nc3cccc(Cl)c3)n2)ccn1
Population Mitochondria Different-Phenotype (%) [2, 7]: 46% and 9% | Population Mitochondria Different-Phenotype (%) [1, 5]: 4% and 18%

CN(C)C/C=C/C(=O)Nc1ccc(C(=O)N2CCCC(Nc3ncc(Cl)c(-c4c[nH]c5ccccc45)n3)C2)cc1 (stereo not given)
Population Membrane Permeable-Phenotype (%) [2, 6]: 1% and 12%

CC(/C=C1\SC(=S)N(CCCC(=O)Nc2ccc(C(=O)O)c(O)c2)C1=O)=C\c1ccccc1
Population Pyknosed Nuclei (%) [2, 7]: 7% and 26% | Population Mitotic Cells (%) [1, 6]: 8% and 27% | Population Mitotic Cells (%) [1, 8]: 16% and 5% | Population Mitotic Cells (%) [1, 7]: 11% and 46% | Population Mitotic Cells (%) [1, 4]: 6% and 21% | Population Mitotic Cells (%) [1, 9]: 2% and 17%

Cl.O=S(=O)(c1cccc2c(I)cccc12)N1CCCNCC1
Population Apoptotic (%) [2, 6]: 5.77% and 32.53% | Population Mitochondria Different-Phenotype (%) [2, 4]: 12.2% and 1.76% | Population Tubulin-Different-Phenotype (%) [2, 4]: 6.83% and 26.47% | Population Fragmented Nuclei (%) [2, 9]: 17.15% and 4.68% | Population Mitochondria Different-Phenotype (%) [1, 6]: 0.95% and 16.98% | Total Cell Count [1, 6]: 483 and 143 | Population Mitochondria Different-Phenotype (%) [1, 7]: 0.37% and 13.74% | Total Cell Count [1, 7]: 611 and 178 | Total Cell Count [1, 4]: 885 and 292 | Total Cell Count [1, 9]: 1051 and 269

COC(=O)c1ccc2c(c1)NC(=O)/C2=C(\Nc1ccc(N(C)C(=O)CN2CCN(C)CC2)cc1)c1ccccc1 [NINTEDANIB]
Population Mitochondria Different-Phenotype (%) [2, 4]: 14.77% and 4.4% | Population Pyknosed Nuclei (%) [2, 9]: 27.42% and 7.49% | Population Mitochondria Different-Phenotype (%) [1, 6]: 5.07% and 26.67% | Population Mitochondria Different-Phenotype (%) [1, 8]: 0.21% and 10.29% | Total Cell Count [1, 8]: 518 and 172 | Population Mitochondria Different-Phenotype (%) [1, 7]: 9.84% and 44% | Total Cell Count [1, 4]: 856 and 248 | Total Cell Count [1, 9]: 422 and 132

Cc1ccc(-c2ccc(F)cc2COc2ccc(CCC(=O)O)cc2)cc1
Population Tubulin-Different-Phenotype (%) [2, 9]: 20% and 62% | Population Apoptotic (%) [3, 8]: 16% and 52%

CCCCCC(O)/C=C/[C@H]1C(=O)CC(O)C1C/C=C\CCCC(=O)O (stereo not given in full)
Population Mitochondria Different-Phenotype (%) [2, 5]: 4% and 20% | Population Tubulin-Different-Phenotype (%) [2, 9]: 14% and 47% | Population Mitotic Cells (%) [1, 5]: 40% and 11%

O=C(Nc1cc(-c2ccccc2)nn1-c1ccccc1F)c1ccc([N+](=O)[O-])cc1
Population Fragmented Nuclei (%) [2, 7]: 7% and 28% | Population Mitotic Cells (%) [1, 6]: 33% and 5%

CN(C)C(=O)Cn1cc(-c2ccc(-c3nnc4ccccn34)cc2)cn1
Population Fragmented Nuclei (%) [2, 6]: 8% and 31% | Population Fragmented Nuclei (%) [2, 7]: 10% and 36%

Cc1c(Cc2ccc3ccccc3n2)c2cc(F)ccc2n1CC(=O)O [TIMAPIPRANT]
Population Fragmented Nuclei (%) [2, 8]: 9% and 30% | Total Cell Count [1, 5]: 298 and 94 | Total Cell Count [1, 8]: 371 and 117 | Population Mitotic Cells (%) [1, 7]: 5% and 27% | Total Cell Count [1, 4]: 536 and 168

COc1cc(Nc2ncc3c(n2)-c2ccc(Cl)cc2C(c2c(F)cccc2OC)=NC3)ccc1C(=O)O [ALISERTIB]
Population Mitotic Cells (%) [3, 6]: 38% and 11% | Population Hoechst High Intensity Objects (%) [3, 7]: 6% and 34% | Population Hoechst High Intensity Objects (%) [3, 4]: 3% and 15% | Population Hoechst High Intensity Objects (%) [3, 9]: 5% and 32% | Population Mitotic Cells (%) [3, 9]: 52% and 17%

Cc1nn(C)c2nc(NNC(=O)Nc3cc(Cl)nc(Cl)c3)cc(C(C)C)c12
Population Mitochondria Different-Phenotype (%) [2, 7]: 22% and 6% | Population Mitochondria Different-Phenotype (%) [2, 9]: 31% and 5% | Population Mitotic Cells (%) [2, 9]: 6% and 37% | Population Mitotic Cells (%) [1, 8]: 19% and 6%

CN1CCN(c2cc(-c3ccccc3)nc(N)n2)CC1
Population Fragmented Nuclei (%) [1, 6]: 30% and 8%

COCCNc1cc(NC(=O)N2CCCc3cc(CN4CCN(C)CC4=O)c(C=O)nc32)ncc1C#N [FGF401]
Population Pyknosed Nuclei (%) [2, 8]: 20.64% and 5.33% | Population Apoptotic (%) [2, 4]: 36.36% and 6.67% | Population Mitochondria Different-Phenotype (%) [2, 9]: 14.39% and 3.61% | Population Healthy Nuclei (%) [3, 5]: 51.34% and 12.59% | Population Mitochondria Different-Phenotype (%) [3, 5]: 37.21% and 0% | Population Apoptotic (%) [3, 6]: 5.3% and 19.78% | Population Healthy Nuclei (%) [3, 6]: 55.97% and 13.16% | Population Tubulin-Different-Phenotype (%) [3, 6]: 7.3% and 46.67% | Total Cell Count [3, 8]: 539 and 144 | Population Healthy Nuclei (%) [3, 7]: 76.15% and 21.21% | Population Pyknosed Nuclei (%) [3, 7]: 22.24% and 73.48% | Total Cell Count [3, 7]: 499 and 132 | Population Pyknosed Nuclei (%) [3, 4]: 12.3% and 45% | Population Tubulin-Different-Phenotype (%) [3, 4]: 3.02% and 60.82% | Total Cell Count [3, 4]: 1236 and 180 | Population Apoptotic (%) [3, 9]: 5.63% and 19.3% | Population Pyknosed Nuclei (%) [3, 9]: 12.37% and 40.71% | Population Tubulin-Different-Phenotype (%) [3, 9]: 2.06% and 50.6% | Total Cell Count [3, 9]: 1148 and 141

O=C(NCCN1CCC(n2c(=O)[nH]c3cc(Cl)ccc32)CC1)c1ccc(F)cc1 [HALOPEMIDE]
Population Mitotic Cells (%) [1, 5]: 4% and 50% | Population Mitotic Cells (%) [1, 4]: 32% and 4%

CN1CCN(c2nc3cc(C(F)(F)F)ccc3n3cccc23)CC1.O=C(O)/C=C\C(=O)O.O=C(O)/C=C\C(=O)O
Population Pyknosed Nuclei (%) [2, 5]: 9% and 30%

NCCc1cn(S(=O)(=O)c2c(Cl)nc3sccn23)c2ccccc12.O=C(O)C(=O)O
Population Mitochondria Different-Phenotype (%) [2, 4]: 3% and 17%

Cc1cccc(F)c1C(=O)Nc1cnc(-c2cc3c(cc2Cl)OC(F)(F)O3)cn1 [ZEGOCRACTIN]
Population Fragmented Nuclei (%) [3, 5]: 12.4% and 1.99% | Population Tubulin-Different-Phenotype (%) [3, 5]: 1.28% and 20.83% | Total Cell Count [3, 8]: 497 and 164 | Population Healthy Nuclei (%) [3, 7]: 38.26% and 11.25% | Population Tubulin-Different-Phenotype (%) [3, 7]: 57.43% and 11.11% | Population Tubulin-Different-Phenotype (%) [3, 4]: 1.51% and 34.71% | Total Cell Count [3, 4]: 987 and 213 | Population Tubulin-Different-Phenotype (%) [3, 9]: 9.2% and 44.64% | Total Cell Count [1, 5]: 375 and 121 | Population Mitochondria Different-Phenotype (%) [1, 6]: 0.6% and 22.38% | Total Cell Count [1, 8]: 520 and 163 | Population Mitochondria Different-Phenotype (%) [1, 7]: 0.75% and 18.75% | Total Cell Count [1, 4]: 1011 and 264 | Population Mitochondria Different-Phenotype (%) [1, 9]: 0.9% and 14.53%

Cc1cc(C)cc(C(=O)NOCCCCCC(=O)NO)c1
Population Fragmented Nuclei (%) [2, 7]: 14.22% and 3.76% | Population Mitochondria Different-Phenotype (%) [2, 4]: 21.14% and 6.84% | Population Fragmented Nuclei (%) [2, 9]: 21.18% and 5.29% | Population Mitochondria Different-Phenotype (%) [2, 9]: 16.24% and 5.19% | Population Mitotic Cells (%) [2, 9]: 55.81% and 4.65% | Population Tubulin-Different-Phenotype (%) [3, 6]: 8.14% and 28.57% | Population Mitochondria Different-Phenotype (%) [3, 7]: 28.21% and 8.33% | Population Tubulin-Different-Phenotype (%) [3, 4]: 13.23% and 54.02% | Population Mitochondria Different-Phenotype (%) [3, 9]: 44.94% and 10.94%

COc1cc2nc(N3CCN(C(=O)COc4c(OC)cccc4C(C)C)CC3)nc(N)c2cc1OC.Cl.Cl
Population Mitochondria Different-Phenotype (%) [2, 7]: 17% and 5%

CC(=O)O[C@H]1C(=O)[C@@]2(C)[C@H]([C@H](OC(=O)c3ccccc3)[C@]3(O)C[C@H](OC(=O)[C@H](O)[C@@H](NC(=O)c4ccccc4)c4ccccc4)C(C)=C1C3(C)C)[C@]1(OC(C)=O)CO[C@@H]1C[C@@H]2O [PACLITAXEL]
Population Tubulin-Different-Phenotype (%) [2, 7]: 12% and 40%
